# Assay results published in paper PMC4081100.
# This is one part of the list. The source does not settle which construct or isoform was used.
# Target: T1, GST-VOZ2 (Arabidopsis thaliana) (UniProt Q9SLB9)
# T1 sequence: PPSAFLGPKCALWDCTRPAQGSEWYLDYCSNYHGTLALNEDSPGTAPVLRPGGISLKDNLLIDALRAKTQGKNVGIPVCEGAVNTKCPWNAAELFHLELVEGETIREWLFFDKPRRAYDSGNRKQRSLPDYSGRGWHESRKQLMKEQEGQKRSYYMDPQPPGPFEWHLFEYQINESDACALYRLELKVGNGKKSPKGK
# Assay: universal protein binding microarray (PBM)
# Settings: transcription factors of Arabidopsis thaliana; high values mean tight binding; most listed sequences are background and not binding sites; double strand, one strand shown
row,Sequence,binding signal [E-score]
1,CTGTTGAC,0.0598
2,GTCAAGAA,-0.116
3,CTTAAGGA,0.00821
4,AAGGAATG,0.0383
5,GGGGTCAA,0.083
6,GTCAAGTA,0.0293
7,AGGGAAAG,0.00386
8,CACGCTAG,-0.0284
9,TAGGGAAA,0.0602
10,CTTGACCC,-0.0232
11,TCAAGTCA,0.0151
12,ACCGTCAA,0.0271
13,ACGCCACG,0.035
14,GGAGGTAA,0.0718
15,CACTCAAC,0.102
16,CACACGCC,0.105
17,GTCAGTCA,-0.138
18,CGTAGACC,-0.182
19,GGTCAAAA,0.114
20,GTCAAGCA,-0.0563

row,Sequence,binding signal [E-score]
1,CTTAGTCA,0.0254
2,CGTTGACA,-0.0256
3,GAAGAAAC,0.0945
4,CCAAGTCA,-0.0178
5,GCGTCAAC,0.0826
6,GTTGACTA,0.0271
7,CACGCGAA,0.122
8,TTAAGGAA,-0.0265
9,GGCGTCAA,-0.00275
10,TATACGCA,0.106
11,TAAAGTCA,-0.0671
12,TGACTCAA,0.148
13,GTCAACAA,0.0956
14,GTCAATTA,0.2
15,AAGTCATC,-0.0147
16,ACGCCACC,0.244
17,CTTACGCA,0.138
18,AAGTCAAT,0.0312
19,GAGTTGAC,-0.0732
